Some of the results follow. For part of these data: At the low end of the ranking, values are background and their order means little. For part of these data: Measured with an extract: partners may take part in the binding.
How the values were obtained:
Details in all cases: 20 mM HEPES pH 7.9, 100 mM NaCl, 1 mM DTT, 0.2 mg/mL BSA, 0.02% Triton X-100, 2% milk, 0.4 mg/mL salmon testes DNA; 1 h; temperature not stated; high values mean tight binding; double strand, one strand shown; sequences stand for … in GCCTAGCAC…GTGCTAGGTCTTGATTCGCTTGACGCTGCTG
PU.1 (IVT) = PU.1 (IVT) (UniProt P17947); experiment: protein-binding microarray (PBM)
[1] = target: PU.1 (endogenous, THP-1 nuclear extract) (UniProt P17947); experiment: nuclear extract protein-binding microarray (nextPBM)
[2] = target: T1, FLI1 (endogenous, THP-1 nuclear extract) (UniProt Q01543); experiment: as above
T1 sequence: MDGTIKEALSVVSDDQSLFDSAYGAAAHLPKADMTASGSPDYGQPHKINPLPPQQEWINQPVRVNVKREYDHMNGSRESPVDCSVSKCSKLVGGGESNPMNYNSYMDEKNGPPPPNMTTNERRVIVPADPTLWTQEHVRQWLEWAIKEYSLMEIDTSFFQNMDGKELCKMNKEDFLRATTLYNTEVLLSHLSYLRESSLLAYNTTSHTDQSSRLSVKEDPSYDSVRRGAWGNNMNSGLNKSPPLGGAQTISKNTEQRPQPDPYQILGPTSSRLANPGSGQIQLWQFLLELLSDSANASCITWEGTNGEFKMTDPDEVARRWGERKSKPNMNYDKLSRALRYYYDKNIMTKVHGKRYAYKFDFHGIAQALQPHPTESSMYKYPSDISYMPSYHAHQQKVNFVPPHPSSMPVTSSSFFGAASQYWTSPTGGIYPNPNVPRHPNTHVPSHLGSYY

Sequence | binding signal (PU.1 (IVT)) [z-score] | binding signal [1] [z-score] | binding signal [2] [z-score]
AGAAAGAGGAAGTCAAAACA | 7.68 | 7.24 | 3.78
CTCTAGAGGAAGTGCAACCC | 3.29 | 3.39 | 2.64
TGAAAGCAGAAGTGGCCAGG | 4.3 | 5.03 | 1.56
TGAAAAAGGAAGTCACAGTG | 4.15 | 4.03 | 2.27
TGAAAAGGGAAGTGGATGTG | 5.84 | 6.26 | 2.99
CTCCAGAGGAAGTGGGGAAT | 2.11 | 2.67 | 2.64
GGGGAAGGGAAGTGCTGGGT | 2.31 | 2.69 | 1.52
CGAAAGGGTAAGTGCTAAAC | 0.518 | 0.292 | 0.368
GCAAAGAGGAAGTCAAACTG | 5.89 | 6.53 | 3.18
CAAAAAGGGAAGTGCATGCT | 6.52 | 6.79 | 2.8
GGAAAGAGGAACTGACAACA | 6.19 | 6.51 | 2.63
AAAATGAGGAAGTGTCAGGG | 7.99 | 7.36 | 3.12
AAAATAAGGAAGTGCAATCA | 6.87 | 6.84 | 2.79
TGGAAGAGGAAGTGGCTAAC | 5.89 | 6.81 | 3.51
GCAAAGGGGAAGTGCCACAC | 6.07 | 6.44 | 2.55
GAAAAGAGGAAGTCAAATTC | 8.31 | 7.1 | 4.2
AAAAAAAGGAACCGGCTAGA | 2.65 | 2.78 | 0.725
AATAAGAGGAAGTGAAATAA | 7.03 | 7.12 | 3.65
TGAAAGAGGAAGTTCAACCA | 7.44 | 7.15 | 3.47
GAAAAGAGGAAGTCAGATTA | 8.07 | 7.35 | 4.05
GAAAAGGGGAAATGGTTAAA | 5.4 | 5.31 | 2.23
TGGATGAGGAACTGGGGCCC | 2.61 | 3.03 | 0.437
GCAAAGGGGAAGTGAGAGGG | 5.27 | 6.16 | 2.47
AAAAAGAGGAAGTCAAACAA | 8.71 | 7.17 | 4.29
CAAAAGCAGAAGTGAGCTTT | 5.61 | 6.56 | 2.4

Sequence | binding signal (PU.1 (IVT)) [z-score] | binding signal [1] [z-score] | binding signal [2] [z-score]
CAGAAAAGGAAGTAAGCCAC | 3.98 | 3.9 | 2.55
CATTTGGGGAAGTGACCTTC | 5.59 | 6.16 | 2.15
CACAAGAGGAAGTGGCAGCT | 4.78 | 5.59 | 3.12
CAAAAGAGGAAGTGAGAAGC | 8.31 | 7.49 | 4.02
CAAATGAGGAACTAATGCGG | 6.94 | 6.66 | 3.32
GAAATGGGGAAGTGTGAGTC | 7.05 | 6.91 | 3.36
AAAAGAAGGAAGTGGGGGTA | 5.06 | 5.71 | 2.42
TGAGAGAGGAAGTGGCAAGT | 4.41 | 4.59 | 3.1
GTAAGAAGGAAGTGAATCTA | 3.33 | 3.48 | 2.37
GGAAGGAGGAAGTAAAAGTT | 6.17 | 6.34 | 2.97
GAAAACAGGAAATCCCATAG | 3.38 | 3.13 | 3.47
GCATAAAGGAAGTGGTTATG | 3.06 | 2.91 | 2.43
CCAAAGAGGAAGTCACAGTC | 6.07 | 6.51 | 2.93
TGAAAGAGGAAGTGCAACAA | 7.1 | 6.92 | 3.79
TGAAAGAGGAAGTGCCCAGG | 7.44 | 7.37 | 3.8
AAGGAGAGGAAGTGAGGGTC | 3.88 | 3.98 | 2.81
TCTCTGAGGAAGTGAGAGAC | 2.46 | 2.69 | 1.53
ATAAACGGGAAGTGAGCAAT | 5.51 | 6.39 | 3.06
GAAAGCAGGAAGTGCTAGTA | 4.46 | 5.19 | 3.81
AAAAAAAGGAACTGGCTAGT | 4.9 | 4.36 | 1.39
CAAAAAGGGAAGTGGATGCC | 6.51 | 6.58 | 3.4
AGAGAGGGGAAGTGAGTTGT | 4.31 | 4.19 | 2.32
CCAGAGAGGAAGTATGCAAG | 4.11 | 4.37 | 2.48
AAGAAGAGGAAGTGTTTACA | 6.43 | 6.68 | 3.52
CTAGAGAGGAAGTGTGGTTA | 3.73 | 3.74 | 3.04

Sequence | binding signal (PU.1 (IVT)) [z-score] | binding signal [1] [z-score] | binding signal [2] [z-score]
AAAAAGAGGAAGAGGAATAG | 5.98 | 6.43 | 2.45
CAAAAAGGGAAGTGGACGCT | 6.7 | 6.81 | 3.33
GCATAGAGGAAGTGGCGGCA | 4.83 | 4.8 | 2.81
GAGGAGAGGAAGTGGAGACT | 3.67 | 3.94 | 2.8
AAAATGGGGAAGTCTAAAAT | 6.67 | 6.84 | 2.34
AAAAAAAGGAAGTGGGCATG | 6.79 | 6.64 | 3.19
TTACAGAGGAAGTGAGGATT | 3.36 | 3.07 | 2.76
CTAAAAGGGAAGTGGATGCT | 4.85 | 5.42 | 2.62
AGGAAGAGGAACTGTCTATG | 4.07 | 4.31 | 2.54
GTGTTAGGGAAGTGGTGAGT | 3 | 3.5 | 1.29
GATTTGGGGAAGTGAGGGCT | 4.91 | 5.96 | 1.9
AGAAAAAGGAACTGAAGAAC | 3.87 | 3.24 | 1.07
TAAAAGAGGAAGTGAATGGG | 8.3 | 7.35 | 4.13
ACAAAAAGTAACTGTGCCCC | -0.372 | -0.05 | -0.053
GGAAAAAGGAAGTGATGATT | 5.74 | 5.61 | 3.17
GGAAAGAGGAAGTGTATGGT | 8.05 | 7.28 | 3.68
ACTAAAAGGAACTGTGCCCC | 0.777 | 1.38 | 0.483
GGAAAGGGGAAGTGGCAGGG | 7.13 | 7.22 | 2.88
GAAAAGGGGAAGTCAAGATT | 7.55 | 7.14 | 3
GAAAACAGCAAGTCCCATAG | 0.0577 | -0.0992 | -0.329
CTGGAGAGGAAGTGGAGAAA | 3.66 | 3.96 | 2.94
CAAAATGGGAAGTGGATGCT | 5.18 | 5.24 | 2.25
TACATGAGGAAGTGCCTGAG | 5.04 | 5.2 | 2.34
AGGAAGGGGAAGTGGTAATT | 5.78 | 6.3 | 3.27
TGAAAAGGGAAGTGCTACAC | 6.25 | 6.26 | 2.62

Sequence | binding signal (PU.1 (IVT)) [z-score] | binding signal [1] [z-score] | binding signal [2] [z-score]
TGGCAGAGGAAGTACTGTGA | 3.97 | 3.41 | 2.48
AGAAAGAGGAAGTCATCACT | 7.59 | 7.37 | 4.08
GAAATAAGGAAGTGCTAACA | 6.6 | 6.61 | 2.62
CAGAAGGGGAAGTCTTTGTT | 5.44 | 5.01 | 2.52
GGAAAGGGGAAGTGCTAAAC | 7.48 | 7.05 | 3.53
GATAAGAGGAACTCCTCTGT | 3.92 | 4.01 | 1.18
AAAAGCAGGAAGTGAAACAG | 4.87 | 6.05 | 4.13
GAAAAGAGGAAGTCAGAAAT | 8.35 | 7.35 | 4.02
GAAAAGAGGAAGCCCATGTG | 5.2 | 6.29 | 2.1
GGAATAAGGAAGTGGCCAGT | 5.59 | 6.35 | 2.54
GAAATCAGGAAGTGCAAGTC | 6.06 | 6.62 | 3.22
AAAAAGAGGAAGTGCCCTGT | 8.56 | 7.36 | 4.49
CGATAGGGGAAGTGCTAAAC | 5.08 | 5.38 | 2.16
GAAAAGAGGAAATGAGAGAG | 5.36 | 6.05 | 2.99
CAAAAAGGGAAGTGGATGGT | 6.54 | 6.76 | 2.79
GAAAAAAGGAACTGGCTAGA | 4.04 | 3.89 | 1.42
GAAAACAGGAACTGGCAAAG | 5.45 | 6.05 | 2.56
AGAGGAAGGAAGTGATAAAA | 2.26 | 1.93 | 2.09
TGAAAGAGGAAGTGCTACCA | 7.5 | 7.23 | 3.9
GATAAGAGAAAGTCCTCTGT | -0.236 | -0.198 | -0.591
TGAACAAGGAAGTGAGGCAT | 2.88 | 3.19 | 1.94
CAGAAGGGGAAGTGAAAACA | 5.54 | 6.54 | 2.67
GATAAGAGGAAGACCTCTGT | 1.92 | 2.61 | 1.11
GAAAAGAGGAAGTCAAACCC | 8.14 | 7.4 | 3.87
